# From the supplement of paper PMC3334620
# In all, about 33,000 sequences were measured (“E-score (-0.5 to 0.5)”: median about -0.053, highest 2% from about 0.37 on). This is one part of the list.
# Molecular target: Hap1 (UniProt P0CE41)
# Experiment: PBM E-score (8-mer binding enrichment) (E-score (-0.5 to 0.5)); higher = stronger / more preferred TF binding; most listed sequences are background and not binding sites
# Conditions: protein concentration: 200 nM; construct: GST-DNA-binding domain
# Procedure, shortened: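 Detection of bound protein used fluorescent anti-GST, with scans normalised by masliner. The proteins were GST-tagged yeast transcription factors applied at about 100-200 nM to universal all-10-mer Agilent arrays made double-stranded by primer extension. Each ungapped eight-base word, pooled with its reverse complement, was scored with an E-score from the Universal PBM Analysis Suite.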
# Sequence of UniProt P0CE41 (P0CE41 whole entry): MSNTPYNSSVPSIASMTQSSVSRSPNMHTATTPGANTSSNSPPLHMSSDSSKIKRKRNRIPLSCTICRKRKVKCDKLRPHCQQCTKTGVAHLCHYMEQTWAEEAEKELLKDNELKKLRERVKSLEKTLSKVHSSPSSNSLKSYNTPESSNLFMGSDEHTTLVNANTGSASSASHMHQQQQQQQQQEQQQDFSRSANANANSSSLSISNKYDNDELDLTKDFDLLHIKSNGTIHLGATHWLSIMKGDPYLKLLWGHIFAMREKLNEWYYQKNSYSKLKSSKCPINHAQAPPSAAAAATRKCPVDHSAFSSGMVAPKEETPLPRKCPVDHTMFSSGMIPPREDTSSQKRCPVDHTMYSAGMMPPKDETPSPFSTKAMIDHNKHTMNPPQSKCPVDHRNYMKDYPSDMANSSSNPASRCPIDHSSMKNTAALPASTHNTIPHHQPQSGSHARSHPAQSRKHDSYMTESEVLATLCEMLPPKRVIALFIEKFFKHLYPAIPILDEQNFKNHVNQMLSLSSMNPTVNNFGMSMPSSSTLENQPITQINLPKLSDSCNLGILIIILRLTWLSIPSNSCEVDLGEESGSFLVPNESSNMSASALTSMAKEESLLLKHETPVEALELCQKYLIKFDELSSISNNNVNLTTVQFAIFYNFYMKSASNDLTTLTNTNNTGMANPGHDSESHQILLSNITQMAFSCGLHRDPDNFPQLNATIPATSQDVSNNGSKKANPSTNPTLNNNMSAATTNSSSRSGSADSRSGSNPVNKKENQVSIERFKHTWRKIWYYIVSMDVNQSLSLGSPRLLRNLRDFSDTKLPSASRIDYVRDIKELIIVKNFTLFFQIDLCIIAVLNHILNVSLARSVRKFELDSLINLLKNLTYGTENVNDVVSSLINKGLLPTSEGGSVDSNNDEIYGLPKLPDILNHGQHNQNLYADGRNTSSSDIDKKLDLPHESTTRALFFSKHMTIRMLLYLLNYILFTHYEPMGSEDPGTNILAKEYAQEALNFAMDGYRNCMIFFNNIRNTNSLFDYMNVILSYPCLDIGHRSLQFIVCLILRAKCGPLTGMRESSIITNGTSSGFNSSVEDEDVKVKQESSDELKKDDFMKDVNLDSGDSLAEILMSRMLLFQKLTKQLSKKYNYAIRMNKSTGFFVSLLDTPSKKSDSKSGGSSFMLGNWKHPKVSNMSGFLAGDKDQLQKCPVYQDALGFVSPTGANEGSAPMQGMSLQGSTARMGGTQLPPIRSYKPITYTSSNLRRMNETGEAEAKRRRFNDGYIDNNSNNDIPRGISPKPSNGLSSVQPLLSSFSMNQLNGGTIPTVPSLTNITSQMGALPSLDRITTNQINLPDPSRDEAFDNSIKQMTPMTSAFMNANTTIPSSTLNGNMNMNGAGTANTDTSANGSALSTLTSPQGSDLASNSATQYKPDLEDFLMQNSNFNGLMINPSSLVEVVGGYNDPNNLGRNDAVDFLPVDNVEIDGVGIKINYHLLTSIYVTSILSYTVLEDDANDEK
row,Sequence,PBM E-score
1,CTGCACCA,-0.16
2,CTTTTGTA,-0.0575
3,AGCGAGAC,0.0175
4,CTCATGCC,-0.0358
5,ACGACGGG,-0.0752
6,AATCTGAT,-0.0367
7,TGGCTCAA,-0.316
8,CCTCTTAC,-0.187
9,CGTTCAAA,0.0352
10,CATTGCGA,-0.149
11,AGTTCCTG,-0.178
12,CATTGAGA,-0.153
13,GGATTCCC,0.12
14,GGGTTAAC,0.272
15,AGCAAACA,-0.0267
16,CAGCGTCA,-0.117
17,CCAGGTCA,-0.134
18,CCCTAGCA,-0.159
19,GCTCTGCC,-0.0514
20,CGACGAAG,0.0792
21,CTATAGAC,-0.196
22,GTGTAGAA,-0.299
23,AGCTTGGG,0.0943
24,GGTTTGCA,0.0506
25,ACTACCTA,-0.0554

row,Sequence,PBM E-score
1,CAGAATGA,-0.149
2,GAAATGAA,0.0592
3,AACCATTG,-0.101
4,ATCCTTGC,-0.143
5,CCAAAGCA,-0.179
6,AATTACCC,0.0864
7,CCAGAACC,-0.137
8,ACAGCACA,-0.0588
9,CGGCTTTA,0.464
10,GCCCCGCA,0.156
11,ACTTAGCT,-0.152
12,ATCTGTAA,-0.0261
13,AACTAACG,0.16
14,ACCTGTCT,-0.139
15,GCCTAGGA,-0.261
16,CTGCTTGC,-0.0895
17,CAATTGAG,-0.026
18,ACACCCCG,0.204
19,ATGGGCAG,-0.193
20,CCCGAAGA,0.284
21,CCAAACGA,-0.0424
22,TACGGCCA,0.102
23,GCGAGAAC,0.0534
24,GCATCCGA,0.291
25,AGTCGACC,0.0627

row,Sequence,PBM E-score
1,CGGACTGA,0.317
2,GTAACACA,-0.12
3,CGCCCCTA,0.248
4,AACAGTAG,-0.178
5,ACGACGTC,-0.0537
6,CAAGAGAA,0.0187
7,CGTACTGA,0.0686
8,GGACTAAA,0.195
9,CGATCGGC,0.312
10,AAAGTCGC,0.136
11,AATCAGAG,-0.168
12,ATCTATCG,0.268
13,ACGGAGCT,0.313
14,ATTTTCTG,-0.149
15,AAGCCCCA,-0.133
16,ATAACTGC,-0.0204
17,AGCAAGTC,-0.153
18,ACCGCACA,-0.00108
19,ACCTATTC,0.0747
20,AAAGGCTA,-0.238
21,GATTCTAA,-0.0294
22,AAATCGGA,0.344
23,GTCATTGA,-0.13
24,AAGTCCGG,0.47
25,AGTAAGAG,-0.23

row,Sequence,PBM E-score
1,CACACCGC,0.0566
2,AACATAGG,-0.125
3,TAAACTGA,-0.0405
4,GCGTCACA,-0.306
5,ACGTCGGC,0.267
6,CCTCCAAA,-0.145
7,ACGCTCGA,-0.125
8,AGTTGTAG,-0.0558
9,GCTGCGCA,0.0488
10,ACAAGGGA,-0.263
11,GCTAAGTA,0.0488
12,CCTTTGCA,-0.207
13,AGCTGACA,0.0168
14,AGCGGCCT,0.0176
15,CCGTATTC,0.0767
16,CCGTTAGG,0.283
17,AGGCCAAT,-0.024
18,AGCTAACA,-0.238
19,CAATAGAC,-0.114
20,ATCCCTAC,0.008
21,GAGAGGGA,-0.235
22,ACATCCCA,-0.0122
23,AACTAAGG,-0.193
24,CGACCCTC,-0.0597
25,GGCTTTGA,0.142

row,Sequence,PBM E-score
1,AAGGCGTG,-0.242
2,GACGCCCA,-0.0742
3,AGGCGAAC,-0.023
4,GAGAAGCA,-0.12
5,CTAATAAA,0.0213
6,TGTGAACA,-0.2
7,GTGTTGGA,-0.11
8,CACCTTAA,-0.0226
9,CGGGTCAA,0.328
10,CATCGTAC,-0.183
11,GTCGACAC,-0.156
12,TACGTAAA,-0.37
13,AATTATGG,-0.0776
14,TGGTCAAA,-0.101
15,CCAGCCCC,-0.0384
16,ATATTCAG,-0.0163
17,CCCACCAG,-0.128
18,ATGAGTCA,-0.264
19,GTCAGCGA,-0.103
20,AATCAGGG,-0.295
21,ACGGGACG,0.166
22,GCACCCCA,0.0516
23,ATGAATTG,-0.0207
24,ACATGCCC,0.027
25,AGGTCTAA,-0.0861

row,Sequence,PBM E-score
1,ACCACGGT,-0.189
2,CCCGTAGA,0.0044
3,ACAATCGC,0.166
4,AAATATGT,0.181
5,CAAGTCCG,0.39
6,AAAATACT,-0.00133
7,CCAATGGG,-0.162
8,TATAATAA,0.0529
9,AGACCTTA,-0.154
10,AGATTACG,0.137
11,TTTCCAAA,-0.109
12,CACGGCCG,0.337
13,GATTTTGA,0.0507
14,AATTTATG,0.021
15,AGGACGAC,-0.143
16,CATACGCA,-0.15
17,GTTGATGA,-0.0424
18,ACCTCACC,-0.0781
19,TATATAAA,-0.024
20,CATTCTCA,-0.0441
21,ACTCATGA,-0.114
22,AAACTTAT,0.0956
23,AGGCAAGA,-0.206
24,TGGGTCAA,-0.312
25,CTTTATTA,-0.156

row,Sequence,PBM E-score
1,CGACGACG,0.0664
2,CATCCGCA,0.224
3,CGAAAATA,0.171
4,GAGAGTTA,-0.237
5,ATCTCTTC,-0.0222
6,ACTCGCGC,0.156
7,AGATCAGC,0.0244
8,CCATTACC,0.0942
9,CGCGACGA,0.0833
10,CAAGCTAG,-0.26
11,CAAACACA,-0.255
12,AGGTCGCC,0.0823
13,AGAGTAGA,0.0496
14,CACGTTCC,-0.115
15,ACCGGTTC,0.369
16,CATCTAGC,-0.1
17,ATGAAGCG,-0.208
18,ACTCACCC,0.125
19,ACTCCGCC,0.306
20,TAGAACGA,-0.235
21,AGGTTCGC,-0.00504
22,AATATGTA,-0.0953
23,ACGACAGG,0.0149
24,CAAGTGAA,-0.178
25,TGAACGAA,-0.332

row,Sequence,PBM E-score
1,ATACACCC,0.145
2,TAATTAAA,-0.134
3,GGAGTCCA,-0.0702
4,ATCATTGG,-0.29
5,CATCCCTC,0.00642
6,TAAATGCA,0.0655
7,AAGAGAAG,-0.143
8,AGCGTTGC,0.127
9,AGTCAGAG,-0.164
10,TAATCGCA,-0.15
11,CAACGGCG,0.157
12,AGTGTTGC,-0.105
13,ACTCGGGG,0.288
14,GGACTGTA,-0.0223
15,ACATCGCT,-0.014
16,CGGCAAAC,0.331
17,AGGTTCCA,-0.134
18,AATGCGGT,0.0532
19,CCTCCAGA,-0.0419
20,AGGCAGAT,-0.176
21,CGTTTTAG,-0.114
22,GGACCACA,0.147
23,AAAGTGTT,0.123
24,GCTCAGGA,-0.24
25,ACGAAGTA,-0.119

row,Sequence,PBM E-score
1,CACGTACA,-0.313
2,AGTCCGCC,0.292
3,ATAGTAAG,-0.0903
4,GCGAGTTA,0.0672
5,CAGCTTCG,-0.0259
6,GACTTCGA,-0.116
7,CGCAACCG,0.222
8,GATTTAGA,0.142
9,AAGCGTAC,-0.292
10,ATAGGATG,-0.0307
11,AATCTATA,-0.0526
12,CGGGGTGA,0.214
13,AGCGAGGC,-0.0336
14,CGAGGTTA,0.0616
15,CCTTTTTA,-0.0714
16,TGAGGCCA,-0.205
17,ACTGTGCA,-0.258
18,AGCCTACG,-0.141
19,CATTGGAC,-0.145
